In PubChem BioAssay AID588342 (National Center for Advancing Translational Sciences (NCATS), 2011):
Screen size: about 360,000 compounds; about 25,000 (6.9%) were called active. The shares of active, inactive and inconclusive entries below differ from those in the screen. Calls follow the shape of the dose curve; as a rule, active = well fitted inhibition curve with a large enough effect; inconclusive = small, poorly fitted or top-dose-only effect; inactive = flat fitted curve, though single readings scatter. Potencies beside an inconclusive call are fits to weak or partial responses and may not hold up.
Also: nearly all actives have a fitted effect of over 55% in size.
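For activity change, negative = inhibition in this document: plate controls were vehicle for no effect and reference inhibitor for full effect.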
Potency is read from the fitted curve at half-maximal effect; tags tell the direction and shape of the fitted curve.

The compounds below were run against Luciferin 4-monooxygenase (Photinus pyralis) (UniProt P08659) (assay: qHTS profiling assay for firefly luciferase inhibitor/activator using purifed enzyme and Km concentrations of substrates (counterscreen for miR-21 project)). Details: purified FLuc, luminescence inhibition; series mostly up to 57.5 µM; activity change, negative = inhibition: at the top concentration.
UniProt P08659, sequence (P08659 whole entry, looked up): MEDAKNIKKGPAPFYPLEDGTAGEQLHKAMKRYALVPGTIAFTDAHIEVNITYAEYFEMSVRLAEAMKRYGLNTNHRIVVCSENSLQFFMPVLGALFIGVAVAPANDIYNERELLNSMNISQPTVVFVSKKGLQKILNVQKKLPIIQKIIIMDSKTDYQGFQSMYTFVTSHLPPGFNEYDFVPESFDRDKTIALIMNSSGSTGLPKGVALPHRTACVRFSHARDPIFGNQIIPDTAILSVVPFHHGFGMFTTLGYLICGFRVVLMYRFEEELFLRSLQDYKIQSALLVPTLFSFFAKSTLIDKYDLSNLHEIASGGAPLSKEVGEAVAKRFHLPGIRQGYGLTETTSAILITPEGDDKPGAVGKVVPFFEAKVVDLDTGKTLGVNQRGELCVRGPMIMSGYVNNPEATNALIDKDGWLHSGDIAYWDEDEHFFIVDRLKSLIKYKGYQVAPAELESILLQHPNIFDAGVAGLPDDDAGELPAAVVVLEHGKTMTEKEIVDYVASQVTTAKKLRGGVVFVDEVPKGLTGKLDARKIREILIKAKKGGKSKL
How it was run: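 Purified P. pyralis luciferase, 10 nM final, with Km-level 10 uM D-luciferin and 10 uM ATP in 50 mM Tris acetate pH 7.5, 10 mM Mg acetate, 0.01% Tween-20, 0.05% BSA; 6-point qHTS titration about 60 µM downward; luminescence read.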
In the case of `CN1CCN(/N=C/c2ccc(-c3ccccc3)cc2)CC1`, the Potency is reported as active: 19 µM.
`CCCCCCOC(=O)c1ccc(OC(=O)c2cccnc2)cc1` was tested, and the Potency was inconclusive: 37.9 µM [inhibitor, partial curve, poor fit].
With `O=[N+]([O-])c1c(NCCCO)cc(Sc2nc3ccccc3s2)c2nonc12` the Potency was inconclusive: 10.7 µM [inhibitor, partial curve, poor fit].
`O=C(O)c1ccccc1SC1CC(=O)N(c2ccc3c(c2)OCO3)C1=O` (configuration not stated) was tested, and the Potency was inconclusive: 23.9 µM [inhibitor, partial curve, poor fit].
With `COc1ccc(NC(=O)COc2ccc(C(=O)OCC(=O)N(C(C)C)C(C)C)cc2OC)cc1` the “activity change, negative = inhibition” value was inactive: 3.51%.
`S=C(Nc1ccc2nc(-c3ccccn3)c(-c3ccccn3)nc2c1)N1CCCCCC1` was tested, and the Potency was inconclusive: 26.9 µM [inhibitor, partial curve, poor fit].
`Cc1ccc(-c2cc(C(=O)NC3CCCCC3)no2)cc1` was tested, and the Potency was inconclusive: 7.57 µM [inhibitor, partial curve, poor fit].
In the case of `Cc1ccc(-c2cc(C(=O)OCC(=O)N(C)C3CCS(=O)(=O)C3)c3ccccc3n2)o1` (configuration not stated), the Potency is reported as inconclusive: 23.9 µM [inhibitor, partial curve].
`CCc1c(C)nc(SCC(=O)N2CCN(c3ccccc3)CC2)[nH]c1=O` was tested, and the Potency was inconclusive: 37.9 µM [inhibitor, partial curve, poor fit].
`Cc1ccc(/C(O)=C2\C(=O)C(=O)N(Cc3cccnc3)C2c2ccccc2[N+](=O)[O-])cc1` (configuration not stated) was tested, and the Potency was inconclusive: 26.9 µM [inhibitor, single point].
For `O=C(CN1CCc2ccccc21)NCc1ccccc1Cl`, the Potency was inconclusive: 37.9 µM [inhibitor, single point].
`COc1cc(OC)cc(C(=O)Nc2cccc(C(C)=O)c2)c1` was tested, and the Potency was inconclusive: 26.9 µM [inhibitor, single point].
With `Cc1ccc(-c2nnn(CC(=O)N(CCCO)C(C(=O)NC3CCCC3)c3ccc(F)cc3)n2)o1` (configuration not stated) the “activity change, negative = inhibition” value was inactive: 1.53%.
For `O=C(C#Cc1ccccc1)Nc1ccc(F)cc1`, the Potency was active: 12 µM.
For `O=C(Nc1ccc(Cl)cc1Cl)c1csc(-c2cccnc2)n1`, the Potency was inconclusive: 1.9 µM [inhibitor, full curve].
`O=C(c1ccccc1)c1ccc(OC(=O)N2CCCC2)cc1` was tested, and the Potency was inconclusive: 23.9 µM [inhibitor, partial curve, poor fit].
`Cc1oc(-c2ccc(Cl)cc2)nc1CS(=O)CC(=O)NCc1ccccc1` (configuration not stated) was tested, and the “activity change, negative = inhibition” value was inactive: -0.0555%.
`O=C(Cn1ncc(Cl)c(Cl)c1=O)N1CCN(Cc2ccccc2)CC1` was tested, and the “activity change, negative = inhibition” value was inactive: -4.17%.
With `Cc1cc2ncc(Cl)nc2cc1C` the Potency was inconclusive: 26.9 µM [inhibitor, partial curve, poor fit].
`CCOC(=O)C1CCN(CC(=O)c2c(C)n(C)c3ccc(OC)cc23)CC1` was tested, and the “activity change, negative = inhibition” value was inactive: -2.07%.
`CN1C(=O)C(C)(C)c2cc(S(=O)(=O)N3CCN(c4ccc(F)cc4)CC3)ccc21` was tested, and the “activity change, negative = inhibition” value was inactive: 0.678%.
With `CC(C)(C)OC(=O)N/N=C\c1ccc([N+](=O)[O-])s1` the Potency was active: 26.9 µM.
`Cc1nn(CC(=O)N2CCN(c3ccccc3F)CC2)c(=O)c2cccn12` was tested, and the Potency was inconclusive: 8.49 µM [inhibitor, partial curve].
With `COc1ccccc1/C=N/Nc1nncc2ccccc12` the Potency was active: 9.53 µM.
In the case of `COc1ccc2c(c1)-c1nc(N)sc1CC2`, the Potency is reported as inconclusive: 23.9 µM [inhibitor, single point].
For `Nc1nc(Nc2ccc(Cl)cc2Cl)nc(C(F)(F)F)n1`, the Potency was inconclusive: 19 µM [inhibitor, partial curve].
In the case of `Cc1cc(OC(C)C(=O)N(Cc2ccco2)Cc2ccco2)cc(C)c1Cl` (configuration not stated), the Potency is reported as inconclusive: 16.9 µM [inhibitor, partial curve, poor fit].
In the case of `C/C=C/c1ccc(OCC(=O)OCc2csc(CC(=O)Nc3ccccc3C)n2)c(OC)c1`, the “activity change, negative = inhibition” value is reported as inactive: -7.54%.
`O=c1cc(O)c2sc3nc4c(c(C(F)(F)F)c3c2[nH]1)CCCCC4` was tested, and the Potency was active: 16.9 µM.
In the case of `COc1cc(C2CC(=O)N3CN(c4ccccc4C)CSC3=C2C#N)cc(OC)c1OC` (configuration not stated), the Potency is reported as inconclusive: 19 µM [inhibitor, partial curve].
`CCn1c(SCc2ccccc2)nnc1-c1cccs1` was tested, and the Potency was inconclusive: 26.9 µM [inhibitor, partial curve, poor fit].
`O=C1C(Nc2cccc(O)c2)=C(N2CCCCC2)C(=O)c2ccccc21` was tested, and the Potency was inconclusive: 21.3 µM [inhibitor, single point].
In the case of `C[C@H](NC(=O)OC(C)(C)C)c1nnc(SCc2ccc(Cl)cc2Cl)o1`, the “activity change, negative = inhibition” value is reported as inactive: -16.8%.
In the case of `CCc1nc2ccc(C(=O)NC3CCC(C)CC3)cc2nc1CC` (configuration not stated), the Potency is reported as inconclusive: 30.1 µM [inhibitor, partial curve, poor fit].
In the case of `CCC(=O)c1ccc(OCC(O)Cn2nnc3ccccc32)cc1` (configuration not stated), the Potency is reported as inconclusive: 26.9 µM [inhibitor, partial curve, poor fit].
`CN(C)S(=O)(=O)N(CC(=O)NCCSCc1ccc(Cl)cc1Cl)c1ccccc1` was tested, and the Potency was inconclusive: 13.5 µM [inhibitor, partial curve, poor fit].
`COc1cc(C(=O)Nc2ccc(Oc3ncnc4sc(-c5ccccc5)cc34)cc2)cc(OC)c1OC` was tested, and the “activity change, negative = inhibition” value was inactive: -0.143%.
`COc1ccccc1NC(=O)C(=O)N/N=C(\C)CC(=O)Nc1ccc(OCc2ccccc2)cc1` was tested, and the Potency was inconclusive: 23.9 µM [inhibitor, single point].
`CC(C)(C)C1=CC=C(C(C)(C)C)C(=O)C1=O` was tested, and the Potency was inconclusive: 9.53 µM [inhibitor, partial curve].
For `COc1ccc(-c2[nH]ncc2Oc2ccccc2OC)c(O)c1`, the Potency was inconclusive: 37.9 µM [inhibitor, partial curve, poor fit].
In the case of `COC(=O)c1[nH]c2cc(OC)ccc2c1NC(=O)c1ccc2c(c1)OCO2`, the Potency is reported as inconclusive: 16.9 µM [inhibitor, partial curve, poor fit].
In the case of `COc1cc(CCNC(=O)c2ccccc2NC(=O)C2=C(C)OCCS2)cc(OC)c1OC`, the Potency is reported as inconclusive: 37.9 µM [inhibitor, partial curve, poor fit].
With `CC(C)(C)c1ccc(NC(=O)N2CCCN(c3c(Cl)cncc3Cl)CC2)cc1` the Potency was inconclusive: 16.9 µM [inhibitor, partial curve].
In the case of `CN1CCC/C1=C/C=C1\SC(=S)NC1=O`, the Potency is reported as inconclusive: 30.1 µM [inhibitor, partial curve, poor fit].
In the case of `O=C(c1cc(-c2ccccc2Cl)nc2ccccc12)N1CCOCC1`, the “activity change, negative = inhibition” value is reported as inactive: 2.29%.
For `Cc1ccccc1NC(=O)CCC(=O)OCC(=O)c1ccc(-c2ccccc2)cc1`, the Potency was inconclusive: 5.36 µM [inhibitor, full curve].
`CNC(=S)Nc1cccc(-c2cnc3ccccc3n2)c1` was tested, and the Potency was active: 16.9 µM.
With `Oc1ccc(C2CNCc3sccc32)cc1O` (configuration not stated) the Potency was inconclusive: 13.5 µM [inhibitor, partial curve].
With `CCc1c(-c2ccccc2)nc2sc3c(c2c1N)CCCC3` the Potency was active: 1.69 µM.
For `O=C(CSc1ncc(-c2ccccc2)[nH]1)Nc1cccc(O)c1`, the Potency was inconclusive: 19 µM [inhibitor, partial curve].
With `Cc1ccc(NC(=O)CCn2c(=O)[nH]c3ccsc3c2=O)cc1C` the Potency was inconclusive: 23.9 µM [inhibitor, single point].
With `Cc1ccc(NC(=O)Cn2cc(S(=O)(=O)Cc3ccccc3)c3ccccc32)cc1C` the Potency was inconclusive: 21.3 µM [inhibitor, partial curve, poor fit].
For `COc1ccc(CCNc2ncnc3c2c(C)c(C)n3CCO)cc1OC`, the Potency was inconclusive: 21.3 µM [inhibitor, single point].
With `COc1ccc(-c2nnc3c4ccccc4c(-c4ccccc4)nn23)cc1` the “activity change, negative = inhibition” value was inactive: 0.249%.
`CCOc1ccc(CCNC(=O)c2cccc(-n3c(C)nc4cccnc43)c2)cc1` was tested, and the “activity change, negative = inhibition” value was inactive: -11.7%.
For `COc1ccc(S(=O)(=O)N2CCCCC2)cc1NC(=O)c1ccc2ccccc2n1`, the “activity change, negative = inhibition” value was inactive: 2.39%.
For `O=C(Nc1ccccc1F)c1ccc(-c2ccccc2)s1`, the Potency was active: 1.51 µM.
For `CCOC(=O)CSc1nc(C)c(C(C)=O)cc1C#N`, the Potency was inconclusive: 4.26 µM [inhibitor, partial curve, poor fit].
For `CCN(CC)C(=O)c1sc2c(c1C)c(=O)n(-c1ccc(Cl)c(Cl)c1)c(=O)n2CC(=O)Nc1cccc(OC)c1`, the “activity change, negative = inhibition” value was inactive: -3.62%.
With `CCN(CC)C(=O)c1cc(C(C)(C)C)c(O)c(C(C)(C)C)c1` the “activity change, negative = inhibition” value was inactive: -0.687%.
In the case of `CN1CCN(CCCOc2ccc(-c3ccccc3)cc2)CC1`, the Potency is reported as active: 19 µM.
In the case of `Cc1occc1C(=O)Nc1ccc(S(=O)(=O)N2CCCC2)cc1`, the “activity change, negative = inhibition” value is reported as inactive: -10.7%.
With `COc1cccc(NC(=O)N2CCN(c3nc(-c4cccc(OC)c4)cs3)CC2)c1` the Potency was inconclusive: 19 µM [inhibitor, partial curve].
For `CCN1CCN(C(c2ccccc2)c2c(O)cc(C)n(Cc3ccco3)c2=O)CC1` (configuration not stated), the Potency was inconclusive: 26.9 µM [inhibitor, partial curve, poor fit].
`CC(Oc1ccc(Cl)cc1Cl)C(=O)Nc1cccc(O)c1` (configuration not stated) was tested, and the Potency was active: 16.9 µM.
In the case of `Cc1nnsc1C(=O)Nc1ccc(S(=O)(=O)N2CCCCC2)cc1`, the “activity change, negative = inhibition” value is reported as inactive: 0.312%.
In the case of `COCCNC(=S)N1CCC(NC(=O)C23CC4CC(CC(C4)C2)C3)CC1`, the “activity change, negative = inhibition” value is reported as inactive: -0.263%.
With `O=C(CCn1c(=O)c2cccn2c2ccccc21)Nc1ccc(F)cc1` the Potency was “inactive”.
`Clc1ccccc1CN1CCN(/N=C/C=C\c2ccco2)CC1` was tested, and the Potency was active: 16.9 µM.
For `Cc1nnc(SCc2ccc(Cl)c(Cl)c2)s1`, the Potency was inconclusive: 23.9 µM [inhibitor, single point].
With `CCOC(=O)c1[nH]c(C)c(C(=O)NCCC2=CCCCC2)c1C` the “activity change, negative = inhibition” value was inactive: -4.7%.
With `CCn1c(C)nc2cc(C(=O)NNS(=O)(=O)c3ccccc3F)ccc21` the Potency was inconclusive: 26.9 µM [inhibitor, partial curve, poor fit].
